These results are taken from publication PMC4593227, “Biochemical effects of mutations in the gene encoding the alpha subunit of eukaryotic initiation factor (eIF) 2B associated with Vanishing White Matter disease” (BMC Medical Genetics, 2015).

The target of test [1] is T1, His6-myc-tagged Val183Phe eIF2Bα (human, UniProt Q14232 1-305, Val183Phe).
T1 sequence: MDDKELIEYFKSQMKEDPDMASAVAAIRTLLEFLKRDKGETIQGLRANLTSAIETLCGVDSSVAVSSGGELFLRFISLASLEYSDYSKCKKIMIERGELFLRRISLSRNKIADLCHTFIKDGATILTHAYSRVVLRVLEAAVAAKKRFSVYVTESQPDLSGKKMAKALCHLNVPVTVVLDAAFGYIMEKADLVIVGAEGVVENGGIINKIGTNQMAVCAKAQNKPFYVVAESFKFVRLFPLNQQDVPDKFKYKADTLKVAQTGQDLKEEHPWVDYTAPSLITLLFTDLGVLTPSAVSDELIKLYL
Put plainly: cell-based or functional assay.

Test [2] has as its target T1, His6-myc-tagged Val183Phe eIF2Bα. Put plainly: pull-down; His6-myc-eIF2Bα (WT or mutant) co-expressed with myc-tagged eIF2B subunits in HEK293; ~200 μg lysate on Ni2+-NTA agarose, 1 h at 4 °C, lysis buffer (20 mM Hepes-KOH pH 7.6, 50 mM KCl, 0.5 % Triton X-100) with 20 mM imidazole; bound material blotted for myc tag, total and phospho-eIF2α. Particulars: partners not purified.

Test [3] addresses T2, His6-myc-tagged Tyr275Cys eIF2Bα (human, UniProt Q14232 1-305, Tyr275Cys).
T2 construct: eIF2Bα encoded by EIF2B1 with the VWM patient mutation Tyr275Cys; residue numbers start with the first methionine of GenBank AAI03764; also called p.Tyr275Cys; source: HEK293, transfected (calcium phosphate), in lysate
T2 sequence: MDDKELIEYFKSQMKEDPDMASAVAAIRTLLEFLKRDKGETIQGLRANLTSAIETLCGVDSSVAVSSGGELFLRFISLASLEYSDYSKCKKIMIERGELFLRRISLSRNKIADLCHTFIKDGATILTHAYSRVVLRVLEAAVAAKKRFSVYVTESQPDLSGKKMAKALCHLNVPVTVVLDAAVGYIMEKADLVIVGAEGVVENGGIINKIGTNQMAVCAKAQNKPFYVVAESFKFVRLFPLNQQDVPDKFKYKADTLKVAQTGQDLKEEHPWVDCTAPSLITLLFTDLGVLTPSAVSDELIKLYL
Described as above. Conditions: partners not purified.

B1: myc-tagged eIF2Bδ (natural protein)
chain: not shown
notes: eIF2Bδ, delta subunit of eukaryotic initiation factor 2B, encoded by EIF2B4; one of 'the other subunits of the eIF2B complex'; source: HEK293, transfected (calcium phosphate), in lysate
Regarding B1, the “decrease in eIF2B GEF activity of complexes containing Val183Phe eIF2Bα, relative to WT (100 %)” value in test [1] is approximately 30%. The “reduction in binding relative to WT” value in test [2] and in test [3] was approximately 50% each time.

B2: myc-tagged eIF2Bε (natural protein)
chain: MAAPVVAPPGVVVSRANKRSGAGPGGSGGGGARGAEEEPPPPLQAVLVADSFDRRFFPISKDQPRVLLPLANVALIDYTLEFLTATGVQETFVFCCWKAAQIKEHLLKSKWCRPTSLNVVRIITSELYRSLGDVLRDVDAKALVRSDFLLVYGDVISNINITRALEEHRLRRKLEKNVSVMTMIFKESSPSHPTRCHEDNVVVAVDSTTNRVLHFQKTQGLRRFAFPLSLFQGSSDGVEVRYDLLDCHISICSPQVAQLFTDNFDYQTRDDFVR[no letters for about 20 residues]VSNLHMYSAVCADVIRRWVYPLTPEANFTDSTTQSCTHSRHNIYRGPEVSLGHGSILEENVLLGSGTVIGSNCFITNSVIGPGCHIGDNVVLDQTYLWQGVRVAAGAQIHQSLLCDNAEVKERVTLKPRSVLTSQVVVGPNITLPEGSVISLHPPDAEEDEDDGEFSDDSGADQEKDKVKMKGYNPAEVGAAGKGYLWKAAGMNMEEEEELQQNLWGLKINMEEESESESEQSMDSEEPDSRGGSPQMDDIKVFQNEVLGTLQRGKEENISCDNLVLEINSLKYAYNISLKEVMQVLSHVVLEFPLQQMDSPLDSSRYCALLLPLLKAWSPVFRNYIKRAADHLEALAAIEDFFLEHEALGISMAKVLMAFYQLEILAEETILSWFSQRDTTDKGQQLRKNQQLQRFIQWLKEAEEESSEDD
notes: eIF2Bε, epsilon subunit of eukaryotic initiation factor 2B, encoded by EIF2B5; one of 'the other subunits of the eIF2B complex'; also called catalytic ε-subunit; source: HEK293, transfected (calcium phosphate), in lysate
As to B2, the “decrease in eIF2B GEF activity of complexes containing Val183Phe eIF2Bα, relative to WT (100 %)” value in test [1] is approximately 30%. Moreover, the “reduction in binding relative to WT” value in test [2] and in test [3] was approximately 50% throughout.
